In all, about 33,000 sequences were measured (“E-score (-0.5 to 0.5)”: median about -0.054, highest 2% from about 0.35 on). This is one part of the list.
What follows are sequences tested against T1, Stb5 (UniProt P38699) (assay: PBM E-score (8-mer binding enrichment) (E-score (-0.5 to 0.5)); higher = stronger / more preferred TF binding; most listed sequences are background and not binding sites). Settings: protein concentration: 200 nM; construct: GST-full length.
T1 sequence: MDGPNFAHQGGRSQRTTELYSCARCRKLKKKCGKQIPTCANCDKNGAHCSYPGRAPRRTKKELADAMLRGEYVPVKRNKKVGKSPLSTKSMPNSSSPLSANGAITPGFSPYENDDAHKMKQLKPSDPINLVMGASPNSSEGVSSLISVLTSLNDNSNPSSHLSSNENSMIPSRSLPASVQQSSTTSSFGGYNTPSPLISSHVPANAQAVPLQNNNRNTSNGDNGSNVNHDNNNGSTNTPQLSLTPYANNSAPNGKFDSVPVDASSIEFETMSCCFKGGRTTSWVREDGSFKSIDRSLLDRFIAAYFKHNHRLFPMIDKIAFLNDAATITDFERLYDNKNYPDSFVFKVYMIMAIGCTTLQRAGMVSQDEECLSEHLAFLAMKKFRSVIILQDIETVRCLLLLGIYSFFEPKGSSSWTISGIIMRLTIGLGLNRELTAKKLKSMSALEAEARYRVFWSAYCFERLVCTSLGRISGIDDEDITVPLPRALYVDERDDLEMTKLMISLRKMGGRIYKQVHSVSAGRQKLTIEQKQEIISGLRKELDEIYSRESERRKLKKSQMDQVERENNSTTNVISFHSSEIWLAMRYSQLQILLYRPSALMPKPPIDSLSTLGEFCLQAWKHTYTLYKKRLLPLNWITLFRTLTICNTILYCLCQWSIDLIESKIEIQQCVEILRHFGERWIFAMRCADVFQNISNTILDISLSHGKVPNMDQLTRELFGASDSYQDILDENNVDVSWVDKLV
In short: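 For each ungapped eight-base word taken together with its reverse complement, the Universal PBM Analysis Suite assigned an E-score. Binding data came from GST-tagged yeast transcription factors, applied at about 100-200 nM, on universal all-10-mer Agilent arrays made double-stranded by primer extension. Fluorescent anti-GST marked bound protein, and scans were normalised with masliner.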

Row | Sequence | PBM E-score
1 | TATTGCGA | 0.112
2 | ACCGAGTA | -0.00951
3 | GGCTTATA | 0.192
4 | TCCCGCCA | 0.205
5 | CTATTTAC | 0.109
6 | ATTGGGCG | 0.0233
7 | AATCACGC | -0.1
8 | GAGCTGAA | -0.27
9 | ATATATTG | 0.196
10 | CAATCCGC | 0.117
11 | CGAGAGAC | -0.0954
12 | CGTCTCAC | -0.119
13 | AATGCAAG | -0.116
14 | CGTAGGTC | 0.108
15 | AACATCAA | 0.0457
16 | GCGAGTGA | -0.143
17 | TGGTAAAA | -0.0266
18 | ACTAAGAT | 0.0515
19 | ACTTCTCC | 0.103
20 | ATAGAGGG | -0.129
21 | ATACCTAT | -0.134
22 | GTTTTACA | 0.1
23 | CTCTATTC | -0.0624
24 | GTAATGAC | 0.00393
25 | ATCCACGC | -0.125

Row | Sequence | PBM E-score
26 | CACTGCGA | -0.101
27 | ACGTGCTA | -0.246
28 | CTTCTCAA | -0.188
29 | ACCTTTAT | -0.0784
30 | GTAAGAGA | -0.0146
31 | CTGGGTTC | -0.135
32 | AGGAGACA | -0.131
33 | GCGTACCC | -0.0483
34 | CAATTCGC | 0.0656
35 | GGCGGAGA | 0.388
36 | GCATCGGC | 0.224
37 | GTAGGTTA | 0.0345
38 | GTCTAAGA | -0.0395
39 | CCGAAGAC | 0.135
40 | CGCGTTGA | -0.0617
41 | ATCCAGGC | -0.244
42 | CTCTAGCC | -0.102
43 | GGAAGCCC | 0.107
44 | CGTAGAGA | -0.241
45 | CTCGCCGC | 0.0978
46 | AACCCGAG | 0.182
47 | GGTCCCTA | 0.011
48 | CGATATAC | 0.166
49 | CTGTCGTA | -0.176
50 | GCCCTCAA | -0.177

Row | Sequence | PBM E-score
51 | ACCGGAGA | 0.344
52 | GACGCGTC | -0.0037
53 | CGGCTAAA | 0.0911
54 | AACATGCG | -0.126
55 | CCTAACGA | -0.19
56 | AAAAAGAT | -0.291
57 | CTCCCCGC | 0.248
58 | AGGAAGTA | 0.0105
59 | AGGATGCG | -0.211
60 | ACTAGAAG | -0.0485
61 | GTTCCGTA | 0.11
62 | GTATACCA | -0.00886
63 | AAACACTA | -0.139
64 | AAAAGGGA | -0.201
65 | GAACCAGA | -0.309
66 | GGCCCCGA | 0.23
67 | CAAGTTCC | 0.0355
68 | AGATAGAG | -0.0692
69 | ACTGTAAC | 0.0101
70 | CAGTTGAA | -0.205
71 | ACGCATCA | -0.074
72 | AAGTAGCG | 0.0894
73 | CGGTCAAG | 0.0608
74 | ATGGCACC | 0.145
75 | AGTTTTAC | 0.0395

Row | Sequence | PBM E-score
76 | CGCGTTGC | 0.149
77 | CTTGACCA | -0.161
78 | CGGGTGCC | 0.0716
79 | GGGGGTCA | -0.125
80 | TGTTTGAA | -0.0645
81 | AGAATTCG | -0.146
82 | ACGTGGTG | 0.0902
83 | AACAGAGG | -0.165
84 | ACTCACAC | -0.18
85 | GTCCAAAC | -0.103
86 | AAATAGAC | -0.105
87 | AGAGGTTG | -0.213
88 | GTACCATA | -0.0621
89 | CGTACGTC | -0.207
90 | AGTTCGCG | -0.00572
91 | ATAAAGCG | 0.236
92 | CCGTCCGC | 0.292
93 | GATGAGAA | -0.244
94 | CAGGGTGC | -0.0545
95 | AAGCAACA | -0.157
96 | CTAGAACC | 0.0742
97 | ATCCGCAT | 0.228
98 | AAACTTGT | -0.145
99 | CGATCTCA | -0.0469
100 | GGGCCGAA | 0.175

Row | Sequence | PBM E-score
101 | CGGTTAGA | 0.0936
102 | CCCCGAGG | 0.148
103 | ACATTGCA | -0.0999
104 | ACGTTCTG | -0.235
105 | CATGAAGC | 0.0101
106 | AACGCCCG | 0.24
107 | ACGCAATA | -0.194
108 | GATGGTCC | 0.145
109 | CCAGGACA | -0.134
110 | TATGTTGA | -0.0726
111 | GACGTCCA | -0.019
112 | AGTCAAGG | -0.289
113 | ACACTTAC | -0.165
114 | GCTCGAAC | -0.229
115 | GCGAGGAA | -0.0244
116 | GGCTCCAC | -0.156
117 | TCGTCCCA | -0.106
118 | ATAGCCGA | 0.216
119 | AACGCAGT | -0.178
120 | CTAACAGC | 0.117
121 | CAGCCCTA | -0.108
122 | AATATATA | 0.217
123 | ATTTGTAA | -0.134
124 | GGGTTCAC | 0.094
125 | CATAGACC | 0.135

Row | Sequence | PBM E-score
126 | GAGTATCC | 0.033
127 | ATGCTGTA | -0.141
128 | GGGATCTA | 0.0662
129 | ATGATCAG | -0.162
130 | CAGTAGTA | -0.289
131 | TCGCATCA | 0.0229
132 | GAGTATCA | 0.00537
133 | ACCACCAA | -0.0217
134 | ATGTGAAA | -0.213
135 | ACAATTCT | -0.237
136 | GCTGTAGA | -0.206
137 | CTCAGTGA | -0.207
138 | AAGTGCTC | -0.227
139 | CGCCAACA | 0.0601
140 | CTTCTACA | -0.162
141 | GCAGGGAA | -0.0679
142 | CTTGTAAA | -0.047
143 | AATCGGAA | 0.0927
144 | AGCTTCCT | -0.248
145 | AAAACCGT | 0.2
146 | GGGGAGGA | -0.183
147 | ATGGTTGG | 0.0159
148 | AGTAATGG | -0.147
149 | ATTTCGTG | -0.112
150 | AGGACCCG | 0.132

Row | Sequence | PBM E-score
151 | GAACCTTA | 0.0737
152 | ACCTGTCA | 0.00165
153 | CACCTATG | 0.0233
154 | CATGTTCC | -0.0768
155 | GCGTGCTA | -0.239
156 | ATAGATGG | -0.076
157 | CTGCTCTA | -0.132
158 | CGGCACGA | 0.294
159 | ACACCTAG | 0.132
160 | CGCCTTTA | 0.105
161 | CAATTATA | -0.123
162 | CGGTAGTA | 0.385
163 | CCAGTCTA | -0.158
164 | GCTTGTGA | -0.282
165 | ACGGGTGC | -0.0196
166 | GCTGCCTA | -0.112
167 | AAATCTAC | -0.0228
168 | AAATCTGT | -0.203
169 | CAGTGTTC | -0.104
170 | CCACTGCG | -0.0774
171 | ATCTCGTC | 0.0028
172 | AGCCCAAG | -0.15

From the supplement of paper PMC3334620
